This is one part of the list. Antibody binding of pooled human sera (four to six donors per pool; dilution not stated) to peptides of the Trypanosoma cruzi antigen TSSA on microarrays. Quantile-normalised fluorescence in arbitrary units, mean of duplicate arrays; higher = more binding. No active / inactive call. The uninfected pools are read here as the healthy donors of the same country. The strongest signals lie near the top of the scale (about 60,000).
Each sequence was assayed on pooled sera of chronic Chagas disease patients, Argentina (assay: antibody binding signal (normalised fluorescence) (arbitrary fluorescence units); higher = stronger serum antibody binding to peptide).
Method: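 Microarray of 15-residue peptides over residues 30-55 of Trypanosoma cruzi TSSAII, each with 1 to 10 substitutions at naturally variable positions, probed with one serum pool per country.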

Sequence | antibody binding signal
GKDNKPATGGTPSQP | 643
TEKKTAAGEAPSQSG | 886
SGTDKKPATGGAPSQ | 2930
KAAAGGAPSQSGASS | 221
PSGKEKKPATGGAPS | 13700
PSGTENKAATGETPS | 36800
PSGKENKAAAGGAPS | 8590
PSGTENKAAAGGTPS | 48000
DNKTATGEAPSQSGA | 14400
TENKAATGGAPSQSG | 29200
SGTDNKAAAGEAPSP | 887
PPSGKDKKTATGGTP | 909
STPPSGTDNKTATGG | 48500
KKAATGETPSQSGAS | 932
PSGKENKAATGGAPS | 8950
TISTPPSGTENKPAA | 48400
GKEKKAATGEAPSPS | 13900
KKPATGETPSQPGAS | 9080
KENKTAAGETPSQSG | 177
TENKPAAGGTPSQSG | 50600

Sequence | antibody binding signal
PSGKENKAATGEAPS | 31100
DKKTATGETPSPPGA | 301
EKKPATGETPSQSGA | 36200
GTEKKPAAGGTPSQS | 1120
TDNKPAAGETPSPSG | 1700
PPSGTDKKPAAGEAP | 17400
KDNKAAAGGTPSQSG | 172
TPPSGKENKTAAGEA | 22100
SGTDKKPAAGETPSP | 325
GKDNKAAAGGTPSPP | 345
KEKKAATGETPSPSG | 556
TDNKTAAGETPSPPG | 196
ENKTATGEAPSQSGA | 14400
EKKAAAGEAPSPPGA | 1260
ENKTAAGGTPSQSGA | 1830
SGTDNKTAAGEAPSP | 277
SGTEKKTAAGGTPSP | 1280
KKTAAGEAPSQPGAS | 1700
TDNKTAAGEAPSQSG | 341
NKAATGGTPSQSGAS | 557

Reference: the supplement of paper PMC10441789
